Experimental data taken from the antibiotic and cytotoxicity screens of Wong et al. (2023).
The other results are listed elsewhere or left out.

Columns and labels:
[1] = system: HSkMC (human skeletal muscle cells); assay: cytotoxicity call (relative viability < 0.9); conditions: 10 µM
[2] = system: HepG2; assay: cytotoxicity call (relative viability < 0.9); conditions: 10 µM
[3] = system: S. aureus RN4220; assay: growth inhibition call (relative growth <= 0.2); conditions: 50 µM

Row | SMILES | cytotoxicity call [1] | cytotoxicity call [2] | growth inhibition call [3]
1 | C[C@@H]1CCCCO[C@H](CN(C)C(=O)Nc2ccc3c(c2)OCO3)[C@H](C)CN([C@@H](C)CO)C(=O)c2cc(NC(=O)Nc3ccc4c(c3)OCO4)ccc2O1 | inactive | inactive | inactive
2 | O=C(C[C@@H]1CC[C@H]2[C@@H](COC[C@@H](O)CN2C(=O)c2ccc3c(c2)OCO3)O1)NC1Cc2ccccc2C1 | inactive | inactive | inactive
3 | C[C@@H]1CN([C@@H](C)CO)C(=O)c2cc(NC(=O)Nc3ccccc3)ccc2O[C@@H]1CN(C)CC1CCCCC1 | inactive | inactive | inactive
4 | C[C@@H]1CN([C@@H](C)CO)S(=O)(=O)c2ccc(C#CC3CCCC3)cc2O[C@H]1CN(C)Cc1cncnc1 | inactive | inactive | inactive
5 | CC(C)=CCc1c2c(c3occ(-c4ccc(O)c(O)c4)c(=O)c3c1O)C=CC(C)(C)O2 | active | active | inactive
6 | Cc1ccc(S(=O)(=O)Nc2ccc3c(c2)C(=O)N([C@H](C)CO)C[C@H](C)[C@@H](CN(C)C(=O)C2CCCCC2)OCCCC[C@@H](C)O3)cc1 | inactive | inactive | inactive
7 | COC(=O)[C@H]1NCCS1 | inactive | inactive | inactive
8 | C[C@@H]1CN([C@@H](C)CO)C(=O)c2cccc(NC(=O)c3ccncc3)c2O[C@H]1CN(C)S(=O)(=O)c1cn(C)cn1 | inactive | active | inactive
9 | C[C@@H]1CN([C@@H](C)CO)C(=O)Cc2cc(NC(=O)Nc3ccc(F)cc3)ccc2O[C@@H]1CN(C)CC1CCCCC1 | inactive | active | inactive
10 | CCS(=O)(=O)N1CC[C@]2(CC1)CN([C@H](CO)c1[nH]c3cc(ccc3c12)OC)S(=O)(=O)c1cn(cn1)C | inactive | inactive | inactive
11 | COc1ccc(NC(=O)Nc2ccc3c(c2)CC(=O)N([C@H](C)CO)C[C@@H](C)[C@@H](CN(C)S(=O)(=O)c2c(C)noc2C)O3)cc1 | inactive | inactive | inactive
12 | COc1ccc(S(=O)(=O)Nc2ccc3c(c2)C(=O)N([C@@H](C)CO)C[C@@H](C)[C@@H](CN(C)C(=O)Nc2ccc(F)cc2)OCCCC[C@@H](C)O3)cc1 | inactive | inactive | inactive
13 | Cn1cnc(S(=O)(=O)N[C@H]2CC[C@@H](CC(=O)Nc3ccccc3)O[C@H]2CO)c1 | inactive | inactive | inactive
14 | CO[C@H](CN(C)C(=O)C1CCOCC1)[C@H](C)CN(C(=O)Nc1ccc(C(F)(F)F)cc1)[C@@H](C)CO | inactive | inactive | active
15 | Cc1cc(NC(=O)CSc2nnc[nH]2)no1 | inactive | inactive | inactive
16 | Cc1noc(C)c1NC(=O)N(C)C[C@H]1Oc2ccc(NS(C)(=O)=O)cc2C(=O)N([C@H](C)CO)C[C@@H]1C | inactive | inactive | inactive
17 | OCC1OC(OC2C(CO)OC(O)(CO)C2O)C(O)C(O)C1O (stereo not given) | inactive | inactive | inactive
18 | O=C(O)CNC(=O)c1ccccc1 | inactive | inactive | inactive
19 | C[C@@H]1CN([C@H](C)CO)C(=O)c2cccc(NC(=O)Nc3ccc(F)cc3)c2O[C@H]1CN(C)Cc1ccc(-c2ccccc2)cc1 | inactive | active | inactive
20 | CCS(=O)(=O)NCC[C@H]1CC[C@H](NS(=O)(=O)c2ccccc2C)[C@H](CO)O1 | inactive | inactive | inactive
21 | COc1ccc(S(=O)(=O)N(C)C[C@H]2OCCCC[C@H](C)Oc3ccc(NC(=O)c4ccccc4)cc3C(=O)N([C@@H](C)CO)C[C@H]2C)cc1 | inactive | inactive | inactive
22 | C[C@@H]1CCCCO[C@H](CN(C)S(=O)(=O)c2cn(C)cn2)[C@H](C)CN([C@H](C)CO)C(=O)c2cc(NS(=O)(=O)c3ccc(F)cc3)ccc2O1 | inactive | inactive | inactive
23 | C[C@H](CO)N1C[C@H](C)[C@@H](CN(C)C(=O)c2ccccc2)OCCCC[C@H](C)Oc2ccc(NS(=O)(=O)c3cccs3)cc2C1=O | inactive | inactive | inactive
24 | C[C@H]1CCCCO[C@H](CN(C)S(=O)(=O)c2ccc(Cl)cc2)[C@@H](C)CN([C@@H](C)CO)C(=O)c2cc(NC(=O)Nc3ccccc3)ccc2O1 | inactive | inactive | inactive
25 | CCCC#Cc1cnc2c(c1)C(=O)N([C@H](C)CO)C[C@H](C)[C@@H](CN(C)S(=O)(=O)c1cn(C)cn1)O2 | inactive | inactive | inactive
26 | C[C@H]1CN([C@@H](C)CO)C(=O)CCCn2nncc2CO[C@H]1CN(C)C(=O)Nc1ccc(C(C)(C)C)cc1 | inactive | inactive | inactive
27 | COc1ccc(NC(=O)N(C)C[C@@H]2OCc3ccccc3-c3c(n(C)c4ccccc34)C(=O)N([C@H](C)CO)C[C@@H]2C)c(OC)c1 | inactive | inactive | inactive
28 | C[C@H](CO)N1C[C@H](C)[C@@H](CN(C)C(=O)C2CCCCC2)OCCCC[C@H](C)Oc2ccc(NS(=O)(=O)c3ccccc3)cc2C1=O | inactive | inactive | inactive
29 | c1ccc(Nc2ncnc3sc(-c4ccccc4)cc23)cc1 | inactive | inactive | inactive
30 | NC(=S)CN1CCCC1=O | inactive | inactive | inactive
